Source: PubChem BioAssay AID485281 (National Center for Advancing Translational Sciences (NCATS), 2010)
Values joined by “and” are separate entries in the source; they are usually repeats but may differ in a detail not shown here. Identical values can stand only once. Hit rate of the full screen: of about 350,000 compounds, about 260 (0.074%) were called active. The shares of active, inactive and inconclusive entries below differ from those in the screen. The call rests on the fitted dose curve; in most records, active means well fitted inhibition curve with a large enough effect; inconclusive means small, poorly fitted or top-dose-only effect; inactive means no such curve, though single readings can be large or run the other way. Potencies of inconclusive entries are doubtful fits and often do not repeat.

Molecular target: Ferritin light chain (Equus caballus) (UniProt P02791)
Chain of UniProt P02791 (P02791 whole entry, looked up): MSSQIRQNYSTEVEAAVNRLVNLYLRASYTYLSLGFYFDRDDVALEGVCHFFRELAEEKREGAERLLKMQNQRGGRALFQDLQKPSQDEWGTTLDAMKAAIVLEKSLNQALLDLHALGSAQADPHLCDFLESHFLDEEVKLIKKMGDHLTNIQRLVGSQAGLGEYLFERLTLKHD
Experiment: qHTS Assay for Identification of Novel General Anesthetics; further: nearly all actives have a fitted effect of over 20% in size
Conditions: apoferritin/1-aminoanthracene competitive binding, fluorescence; activity change, negative = displacement: at 77.5 µM (top of the series)
Procedure, shortened: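 Steps: apoferritin (10 uM) was premixed with half-saturated 1-AMA in PBS, compounds were pin-transferred, plates stood 10 min at room temperature, fluorescence was read at 380/535 nm, and curves were fitted with a Hill equation.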
On the % scale 0 is the no-effect control and ±100 the full control effect; potency means the concentration at half of the fitted maximal effect; tags describe the fitted curve by direction and shape.

Row | SMILES | Potency | activity change, negative = displacement
1 | Cc1ccc(/C=C2/NC(=O)N(Cc3ccccc3)C2=O)s1 | inconclusive: 28.2 µM [inhibitor, single point] | 
2 | CC1CCCN(C(=O)C(=O)c2cn(CC(=O)N3CCCCCC3)c3ccccc23)C1 (centres undefined) | inconclusive: 25.1 µM [inhibitor, partial curve] | 
3 | O=C(ON=C1CCN(c2ccc([N+](=O)[O-])cc2)CC1)c1ccccc1 | inconclusive: 44.7 µM [inhibitor, partial curve] | 
4 | COc1cc(NC(=S)N2CCCCC2C)cc(OC)c1OC (centres undefined) | inconclusive: 25.1 µM [inhibitor, partial curve] | 
5 | Cc1cc(C)c2c(CN3CCC(C)CC3)cc(=O)oc2c1 | inactive | 
6 | COc1ccc(OC)c(CNc2nc3ccccc3n2CCN2CCCCC2)c1 | inactive | 
7 | CSCC[C@H](NC(=O)[C@H](CC(C)C)NC(=O)CCNC(=O)[C@@H](NC(=O)[C@H](Cc1ccccc1)NC(=O)[C@H](CO)NC(=O)[C@@H](N)CC(=O)O)C(C)C)C(N)=O | inactive | 
8 | CCOc1ccccc1NC(=O)c1sc2nc3c(cc2c1N)CN(Cc1ccccc1)CC3 | inactive | 
9 | Cc1ccc(-n2c(N)c(C(=O)NCc3ccco3)sc2=S)cc1 | inconclusive: 28.2 µM [inhibitor, single point] | 
10 | COc1cccc(-c2nn(-c3ccccc3)cc2/C=C(\C#N)C(=O)NCCCn2ccnc2)c1 | inconclusive: 56.2 µM [inhibitor, single point] | 
11 | CC(C)c1ccc(C2=CC(c3cccc(Cl)c3)n3ncnc3N2)cc1 (centres undefined) | inactive | 
12 | Cc1cccc(NCc2ccccc2O)c1 | inconclusive: 10 µM [inhibitor, full curve, poor fit] | 
13 | CCCCCCCCCn1c2c(c(=N)c3c1CCC3)CCCC2 | inconclusive: 11.2 µM [inhibitor, partial curve] | 
14 | Cc1nc2c(s1)sc1ccccc12 | inconclusive: 28.2 µM [inhibitor, partial curve] | 
15 | CCCC(C)C(=O)Nc1nc(C)c(-c2csc(Nc3ccccc3OC)n2)s1 (centres undefined) | inconclusive: 10 µM [inhibitor, partial curve] | 
16 | CCOc1cc(S(=O)(=O)NC2CCCCC2)ccc1F | inactive | 
17 | CC1(C)COCN1C(=O)c1ccc(Cl)c(Cl)c1 | inconclusive: 31.6 µM [inhibitor, partial curve, poor fit] | 
18 | Cc1nn(CCC(=O)NC(C)C)c(=O)c2nn(-c3ccccc3)c(C)c12 | inactive | 
19 | COc1cc2c(C(=O)N3CCN(c4cccc(C)c4)C(C)C3)cn(CC(C)C)c(=O)c2cc1OC (centres undefined) | inconclusive: 35.5 µM [inhibitor, single point] | 
20 | N=C1C(c2ccccc2)=C(O)CN1c1cccc(S(=O)(=O)Nc2cccc(C(F)(F)F)c2)c1 | inactive | 
21 | O=C(Oc1ccccc1C(=O)Oc1ccccc1)c1ccco1 | inconclusive: 50.1 µM [inhibitor, single point] | 
22 | Cc1cc(C)c(Cn2c(=O)n(CCCCCC(=O)NCc3ccc4c(c3)OCO4)c(=O)c3sccc32)c(C)c1 | inactive | 
23 | Cc1ccnc(N2CCC(C(=O)Nc3cccc(C(F)(F)F)c3)CC2)n1 | inactive | 

Row | SMILES | Potency | activity change, negative = displacement
24 | O=C1c2ccsc2SCCN1Cc1ccc(Cl)cc1Cl | inconclusive: 14.1 µM [inhibitor, partial curve] | 
25 | Cc1nnn(C23CC4CC(CC(CC(=O)Nc5cccc(F)c5)(C4)C2)C3)n1 | inconclusive: 31.6 µM [inhibitor, partial curve] | 
26 | COc1ccc(NS(=O)(=O)c2ccc3[nH]c4c(c3c2)CCCC4)c(OC)c1 | inconclusive: 2.82 µM [inhibitor, full curve, poor fit] | 
27 | Cc1csc(SCC(=O)c2cc(C)n(Cc3cccs3)c2C)n1 | inconclusive: 14.1 µM [inhibitor, partial curve] | 
28 | Cc1ccc(C(=O)N(Cc2nc3ccccc3c(=O)[nH]2)C2CCCC2)cc1 | inconclusive: 22.4 µM [inhibitor, partial curve] | 
29 | COc1ccccc1Nc1nc(C)cs1 | inconclusive: 39.8 µM [inhibitor, partial curve] and inconclusive: 28.2 µM [inhibitor, partial curve] | 
30 | O=C1N(CCCl)c2ccc(Br)cc2C12OCCO2 | inactive | 
31 | CCCc1cc(=O)[nH]c(SCc2ccccc2Cl)n1 | inconclusive: 25.1 µM [inhibitor, partial curve] | 
32 | CC(C)[C@H](NC(=O)OC(C)(C)C)[C@@H](O)CC(=O)OC(C)(C)C |  | inactive: 6.6% [at 15.3 µM]
33 | O=C(Nc1ccc(F)cc1)c1nc(S(=O)(=O)Cc2ccccc2)ncc1Cl | inconclusive: 11.2 µM [inhibitor, partial curve] | 
34 | O=C(CCn1nc(-c2ccc(Cl)cc2)ccc1=O)N1CCN(c2ccccc2)CC1 | inconclusive: 12.6 µM [inhibitor, partial curve] | 
35 | Cc1ccc(CNC(=O)[C@]2(C(F)(F)F)C[C@H](CCc3ccccc3)CCCO2)o1 | inactive | 
36 | CC(C)OCCCNC(=O)CCCC(=O)Nc1ccc(OCCc2ccccc2)cc1 | inconclusive: 12.6 µM [inhibitor, partial curve] | 
37 | O=C(CCCOc1ccccc1)Nc1ccc(S(=O)(=O)N2CCOCC2)cc1 | inconclusive: 35.5 µM [inhibitor, partial curve] | 
38 | COc1ccccc1-c1nc(C#N)c(N2CCN(c3ccccc3)CC2)o1 | inactive | 
39 | O=C(NCc1ccco1)C(c1cccs1)N(C(=O)Cc1cccs1)c1ccccc1 (centres undefined) | inactive | 
40 | CC1(c2ccccc2Br)NC(=O)N(CC(=O)Nc2ccc(S(N)(=O)=O)cc2)C1=O (centres undefined) | inconclusive: 39.8 µM [inhibitor, single point] | 
41 | CN(CC(=O)Nc1cccc(F)c1)C(=O)CC1CC2CCC1C2 (centres undefined) | inconclusive: 28.2 µM [inhibitor, partial curve] | 
42 | CCNC(=S)N1CCN(c2nc(-c3ccc(F)cc3)cs2)CC1 | inactive | 
43 | COc1cc(C2Nc3ccccc3C(=O)N2c2ccccc2OC)ccc1O (centres undefined) | inactive | 
44 | O=C(Nc1ccccc1)c1cccc(N2C(=O)C3C4C=CC(C5CC45)C3C2=O)c1 (centres undefined) | inconclusive: 35.5 µM [inhibitor, single point] | 
45 | O=C(CN1C(=O)c2ccccc2C1=O)Nc1cccc(S(=O)(=O)Nc2ccccc2Cl)c1 | inactive | 
46 | Nc1c(NCCc2ccccc2)c2ccccc2oc1=O | inconclusive: 31.6 µM [inhibitor, single point] | 

Row | SMILES | Potency | activity change, negative = displacement
47 | Cn1c(-c2ccc(N)cc2)nc2ccccc21 | inconclusive: 35.5 µM [inhibitor, partial curve] | 
48 | Cc1oc(-c2ccc(Cl)cc2)nc1CN1CCCC(C(=O)N2CCN(C(=O)c3ccco3)CC2)C1 (centres undefined) | inactive | 
49 | O=C(Nc1ccccc1)c1nn(-c2cccc(C(F)(F)F)c2)ccc1=O | inconclusive: 28.2 µM [inhibitor, partial curve] | 
50 | Cc1cc(Nc2nnnn2-c2ccccc2)n(-c2ccc(Cl)cc2)n1 | inactive | 
51 | O=C(CCNc1ccc(F)c(Cl)c1)c1ccco1 | inconclusive: 28.2 µM [inhibitor, partial curve] | 
52 | Cc1cccc2nc(CSc3nc4[nH]ncc4c(=O)n3-c3ccccc3Cl)cc(=O)n12 | inconclusive: 15.8 µM [inhibitor, partial curve] | 
53 | O=S(=O)(c1ccc2c(c1)OCCO2)N1CCC(c2nc3ccc(Cl)cc3[nH]2)CC1 | inactive | 
54 | COc1ccc(/C=N\Nc2ccc([N+](=O)[O-])cc2[N+](=O)[O-])c(C(=O)O)c1OC | inactive | 
55 | Cc1ccc(NC(=O)c2sccc2-n2cccc2)c(C)c1 | inconclusive: 31.6 µM [inhibitor, partial curve] | 
56 | CCC1S/C(=N\S(=O)(=O)c2cccs2)N(C2CCCCC2)C1=O (centres undefined) | inconclusive: 39.8 µM [inhibitor, partial curve] | 
57 | CC(=O)C1=C(C)NC2=C(C(=O)c3ccccc32)C1c1ccccc1 (centres undefined) | inconclusive: 25.1 µM [inhibitor, partial curve] | 
58 | Cc1ccc(CNC(=O)CSc2nnc(C)c3c(C)n(-c4ccccc4)nc23)cc1 | inconclusive: 15.8 µM [inhibitor, partial curve] | 
59 | O=C(c1ccc(S(=O)(=O)N2CCCCC2)cc1)N1CCN(Cc2ccc3c(c2)OCO3)CC1 | inconclusive: 31.6 µM [inhibitor, partial curve] | 
60 | CCCCCCC1=Cc2cc(OC)c(OC)cc2C(C(C(C)=O)C(=O)OCC)O1 (centres undefined) |  | inactive: -14.1% [at 15.3 µM]
61 | CC(=O)c1c(C)nc2sc3c(=N)n(N)cnc3c2c1-c1ccc(Cl)cc1 | inconclusive: 10 µM [inhibitor, partial curve] | 
62 | Cc1ccc(Cl)cc1N1CCN(c2cccc[n+]2C)CC1 | inactive | 
63 | O=C(Nc1ccc2nc3n(c(=O)c2c1)CCCCC3)c1cc([N+](=O)[O-])ccc1F | inconclusive: 35.5 µM [inhibitor, single point] | 
64 | O=C1NC2(CCCCCC2)Oc2ccccc21 | inconclusive: 11.2 µM [inhibitor, partial curve] | 
65 | CC(=O)O[C@]1(C(C)=O)CC[C@@H]2[C@@H]3C=C(C)C4=CC(=O)CC[C@@]4(C)[C@H]3CC[C@]21C | inconclusive: 11.2 µM [inhibitor, single point] | 
66 | Cc1cccc(OCCCOc2cccc3cccnc23)c1C | inconclusive: 28.2 µM [inhibitor, partial curve] | 
67 | O=S(=O)(Nc1ccccc1Cl)c1cccc2nsnc12 | inconclusive: 25.1 µM [inhibitor, partial curve] | 
68 | COc1ccc2[nH]c(C)c(CCNC(=S)Nc3cc(C)ccc3C)c2c1 | inactive | 
69 | CCN1CCCC1CNC(=O)c1cc2c(-c3cccc(OC)c3)nn(C)c2s1 (centres undefined) | inactive | 
